Measured values reported in PubChem BioAssay AID485294 (National Center for Advancing Translational Sciences (NCATS), 2010).
Among all 370,000 compounds or so, about 150 (0.041%) were called active. The inconclusive results got no clear call from the source; some entries with a clear call stand among them for comparison. The call rests on the fitted dose curve; in most records, active means well fitted inhibition curve with a large enough effect; inconclusive means small, poorly fitted or top-dose-only effect; inactive means flat fitted curve, though single readings scatter. No potency is given beside an inconclusive call; the fits are too rough.

target: Beta-lactamase (Escherichia coli (strain K12)) (UniProt P00811); assay: qHTS Inhibitors of AmpC Beta-Lactamase (assay with detergent); details: AmpC hydrolysis of nitrocefin, absorbance 480 nm, 0.01% Triton; series mostly up to 114 µM; further: nearly all actives have a fitted effect of over 25% in size
UniProt P00811, sequence (P00811 whole entry, looked up): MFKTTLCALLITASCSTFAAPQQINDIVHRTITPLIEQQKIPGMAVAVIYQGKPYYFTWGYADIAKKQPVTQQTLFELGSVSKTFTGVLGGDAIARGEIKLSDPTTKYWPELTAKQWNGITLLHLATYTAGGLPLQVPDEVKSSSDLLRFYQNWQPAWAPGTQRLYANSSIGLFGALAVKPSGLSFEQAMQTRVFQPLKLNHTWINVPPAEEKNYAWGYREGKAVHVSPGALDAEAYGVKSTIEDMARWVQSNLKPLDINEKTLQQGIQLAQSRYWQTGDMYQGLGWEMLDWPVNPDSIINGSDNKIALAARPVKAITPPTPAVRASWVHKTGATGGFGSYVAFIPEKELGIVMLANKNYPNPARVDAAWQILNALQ
Method in brief: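 20 mM phosphate pH 7.0 + 0.01% (detergent screen) or 0.0001% Triton X-100; 5.3 nM AmpC reagent; cpd preinc 15 min RT; nitrocefin (800 uM stock) to start; A480 q20 s × 4 min; Activity was normalised to no-enzyme and no-compound control wells.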
Potency means the concentration at half of the fitted maximal effect; tags describe the fitted curve by direction and shape.

| SMILES | Potency |
| --- | --- |
| CCCOC(=O)c1ccc(Oc2cn[nH]c2-c2ccc(OC)cc2O)cc1 | inconclusive [inhibitor, full curve] |
| CCN(CC(=O)NC1CCCCCC1)S(=O)(=O)c1ccccc1 | inconclusive [inhibitor, partial curve] |
| O=C(NCCSc1ccccc1)c1ccc(CN2CCOCC2)cc1 | inactive |
| COc1ccc(N=C(N(C)C)P(=O)(N(C)C)N(C)C)cc1 | inconclusive [inhibitor, partial curve, poor fit] |
| Cc1cc(Cl)ccc1NC(=O)CCN1C(=O)NC(C)(C)C1=O | inactive |
| Cc1cccc(OCC2Cn3c(nc4c3c(=O)[nH]c(=O)n4C)O2)c1 (stereo not given) | inconclusive [inhibitor, partial curve, poor fit] |
| COC(=O)/C=C(\C)NC(=O)c1ccccc1Cl | inconclusive [inhibitor, single point] |
| COc1ccc(OC)c(S(=O)(=O)Nc2c(C)nn(C)c2C)c1 | inconclusive [inhibitor, full curve, poor fit] |
| CCN(C(=O)CSc1cc(C)c2ccc(OC)cc2n1)C1CCS(=O)(=O)C1 (stereo not given) | inconclusive [inhibitor, full curve, poor fit] |
| Cc1cccc(N2CCN(C(=O)c3c(C)nn(Cc4ccccc4Cl)c3C)CC2)c1C | inconclusive [inhibitor, full curve, poor fit] |
| COc1ccc(NC(=O)CSCC(=O)Nc2sccc2C#N)cc1 | inconclusive [inhibitor, partial curve] |
| CC(Oc1ccc(Cl)cc1Cl)c1ccnc2nc(N3CCOCC3)nn12 (stereo not given) | inactive |
| COC(=O)c1[nH]c2cc(OC)c(OC)cc2c1/C=N/Nc1ccccc1 | inactive |
| Cc1ccc(N2CC(NC(=O)c3cccc(Cl)c3)CC2=O)cc1C (stereo not given) | inactive |
| CCCNC(=O)C1CCN(S(=O)(=O)c2c(C)noc2/C=C\c2ccc(OC)cc2)CC1 | inactive |
| Cc1ccc(S(=O)(=O)N2CCN(C(=O)NCc3ccc(F)cc3)CC2)c(C)c1 | inactive |
| O=C(NN1CCOCC1)c1cc(-c2cccs2)nc2ccccc12 | inconclusive [inhibitor, full curve, poor fit] |
| Cc1cc(NC(=O)c2ccccc2)ccc1NC(=O)Cc1ccccc1 | inconclusive [inhibitor, full curve] |
| CCOC(=O)c1c(C)oc2ncnc(Nc3cc(C)cc(C)c3)c12 | inactive |
| C=CCc1cccc2cc(C(=O)N3CCOCC3)c(=O)oc12 | inactive |
| COc1cc(NC(=O)c2cc(-c3cccc(OC)c3)n[nH]2)cc(OC)c1 | inactive |
| COC(=O)N1C(=O)[C@@](c2ccc(OC)cc2)(C(C)C)N1C(=O)OC | inactive |
| COC(=O)c1ccc(NC(=O)CC2C(=O)N(c3cccc(OC)c3)C(=O)N2C(C)C)cc1 (stereo not given) | inconclusive [inhibitor, single point] |

| SMILES | Potency |
| --- | --- |
| Cc1ccccc1OCC(O)Cn1c(Br)nc2c1c(=O)n(C)c(=O)n2C (stereo not given) | inconclusive [inhibitor, partial curve, poor fit] |
| O=C(CN1C(=O)c2cccc3cccc1c23)NCC1CCCO1 (stereo not given) | inconclusive [inhibitor, full curve, poor fit] |
| CC1(C)CC(=O)C2=C(C1)NC(Nc1nc3ccccc3o1)=NC21CCCCC1 | inconclusive [inhibitor, full curve, poor fit] |
| CC1CCCCC1NC(=O)Cn1nc(-c2ccccc2)ccc1=O (stereo not given) | inconclusive [inhibitor, full curve, poor fit] |
| O=C(CCc1nc(-c2ccccc2F)no1)NC1CCN(Cc2ccccc2)CC1 | inconclusive [inhibitor, full curve, poor fit] |
| N#C/C(=N\Nc1ccccc1)C(=N)N1CCOCC1 | inactive |
| CCOC(=O)c1cc(C(=O)OCC)c(=O)[nH]c1C | inconclusive [inhibitor, partial curve, poor fit] |
| O=C(Nc1ccc(OC(F)(F)F)cc1)c1noc2c1CCCC2 | inactive |
| Cc1cccc(-n2ncc3c(Nc4ccc(F)cc4)ncnc32)c1 | inconclusive [inhibitor, full curve] |
| CCn1c(COc2ccccc2)nnc1SCC(=O)CC(=O)Nc1ccccc1OC | inconclusive [inhibitor, full curve, poor fit] |
| C/C(CC(=O)N(C(C)C)C(C)C)=N\NC(=O)c1ccccc1Br | inconclusive [inhibitor, partial curve] |
| O=c1c(/C=N/Nc2ccccc2)c(Sc2nnnn2-c2ccccc2)nc2ccccn12 | inactive |
| O=C(NC1CCC(O)CC1)c1ccc(-c2ccc([N+](=O)[O-])cc2)o1 (stereo not given) | inactive |
| CC1CCN(C(=O)C2CCC(CNS(=O)(=O)c3cccc4cccnc34)CC2)CC1 (stereo not given) | inconclusive [inhibitor, partial curve, poor fit] |
| CN1C(=O)/C(=C\C=C2/CCCN2C)N(C)C1=S | inactive |
| O=C(NCCCN1CCOCC1)c1cnn2c(-c3ccccc3)cc(-c3ccccc3)nc12 | inconclusive [inhibitor, partial curve] |
| COc1cccc(C(=O)NC2CC3CCC(C2)N3Cc2ccccc2)c1 (stereo not given) | inconclusive [inhibitor, full curve, poor fit] |
| Cc1nc2ccccc2n1CC(=O)c1ccccc1 | inconclusive [inhibitor, full curve] |
| CCc1ccccc1-n1c(N)c(C(=O)OC)c2nc3ccccc3nc21 | inactive |
| Cc1nnc(NC(=O)CSCc2c(C)noc2C)s1 | inconclusive [inhibitor, full curve, poor fit] |
| COc1ccccc1N(CC(=O)NCCSCc1ccco1)S(=O)(=O)c1ccccc1 | inconclusive [inhibitor, partial curve, poor fit] |
| Cc1ccc(S(=O)(=O)N2CCOCC2)cc1C(=O)NCc1cn2ccsc2n1 | inconclusive [inhibitor, partial curve] |
